Over roughly 2,900 compounds, “IRF Lucia reporter activity, fold change vs agonist alone” has its median near 0.9; the highest 2% begin near 2.8. This is one part of the list.
Columns and labels:
[1] = tested on: RAW-Dual; assay: IRF Lucia reporter activity, fold change vs agonist alone; higher = enhanced IRF activity; settings: library stock concentration (final ~1000-fold dilution): 10 mM, agonist: MPLA (TLR4) […]
Outline: (§1)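 After 50 nL of library stock was delivered by pin tool to RAW-Dual macrophages (50,000 cells/well, DMEM, 384-well plates), a PRR agonist was added 1 h later and the plates were kept at 37 °C, 5% CO2. Twenty hours later, IRF was read from supernatant by QuantiLuc luminescence and NF-κB by QuantiBlue absorbance at 620 nm. Reporter activity is stated as fold change over agonist-alone wells. Wells with IncuCyte confluency under 70% of agonist controls in both mask sets were counted as cytotoxic.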

[2] = tested on: RAW-Dual; assay: IRF Lucia reporter activity, fold change vs agonist alone; cytotoxicity flag (confluency mask): not cytotoxic; higher = enhanced IRF activity
Outline: as §1

[3] = tested on: RAW-Dual; assay: IRF Lucia reporter activity, fold change vs agonist alone; cytotoxicity flag (confluency mask): cytotoxic (confluency <70% of control); higher = enhanced IRF activity
Outline: as §1

[4] = cytotoxicity flag (confluency mask): not cytotoxic
[5] = agonist: 3'3'-cGAMP (STING) 10 ug/mL

Question: Which “IRF Lucia reporter activity” value [1, 4] does the source give for `O=c1cc[nH]c(=S)[nH]1` here?
Answer: 1

Question: How did the “IRF Lucia reporter activity” value [2, 5] turn out when `O=c1cc[nH]c(=S)[nH]1` (library stock concentration (final ~1000-fold dilution): 10 mM) was run?
Answer: 1.04

Question: What about the “IRF Lucia reporter activity” value ([2]; agonist: LPS (TLR4) 0.1 ug/mL) of the same compound?
Answer: 0.848

Question: `Cc1nnc(SCC2=C(C(=O)O)N3C(=O)C(NC(=O)Cn4cnnn4)C3SC2)s1` (stereo not drawn) (library stock concentration (final ~1000-fold dilution): 10 mM) was tested. Which “IRF Lucia reporter activity” value [2, 5] did it give?
Answer: 1.08

Question: What about the “IRF Lucia reporter activity” value ([2]; agonist: LPS (TLR4) 0.1 ug/mL) of the same compound?
Answer: 1.26

Question: For `Cc1nnc(SCC2=C(C(=O)O)N3C(=O)C(NC(=O)Cn4cnnn4)C3SC2)s1` (stereo not drawn), which “IRF Lucia reporter activity” value [1, 4] is on record?
Answer: 1.07

Question: With `Cc1cccc(C#Cc2ccccc2)n1` (library stock concentration (final ~1000-fold dilution): 10 mM) as the compound, how does the “IRF Lucia reporter activity” value [2, 5] read?
Answer: 1.01

Question: What about the “IRF Lucia reporter activity” value ([2]; agonist: LPS (TLR4) 0.1 ug/mL) of the same compound?
Answer: 1.08

Question: `Cc1cccc(C#Cc2ccccc2)n1` was tested. Which “IRF Lucia reporter activity” value [1, 4] did it give?
Answer: 1.33

Question: Which “IRF Lucia reporter activity” value [2, 5] does the source give for `Nc1nc(NCCc2ccc(O)cc2)nc2nc(-c3ccco3)nn12` (library stock concentration (final ~1000-fold dilution): 10 mM) here?
Answer: 0.563

Question: And the “IRF Lucia reporter activity” value ([2]; agonist: LPS (TLR4) 0.1 ug/mL)?
Answer: 0.973

Question: With `O=C(/C=C/c1ccc(CN(CCO)CCc2c[nH]c3ccccc23)cc1)NO` as the compound, how does the “IRF Lucia reporter activity” value ([1]; cytotoxicity flag (confluency mask): cytotoxic (confluency <70% of control)) read?
Answer: 0.454

Question: `O=C(/C=C/c1ccc(CN(CCO)CCc2c[nH]c3ccccc23)cc1)NO` (library stock concentration (final ~1000-fold dilution): 10 mM) was tested. Which “IRF Lucia reporter activity” value [3, 5] did it give?
Answer: 0.0242

Question: What about the “IRF Lucia reporter activity” value ([3]; agonist: LPS (TLR4) 0.1 ug/mL) of the same compound?
Answer: 0.713

Question: Which “IRF Lucia reporter activity” value [1, 4] does the source give for `Cc1nc(-c2cn3c(n2)-c2ccc(-c4cnn(C(C)(C)C(N)=O)c4)cc2OCC3)n(C(C)C)n1` here?
Answer: 1.98

Question: For `Cc1nc(-c2cn3c(n2)-c2ccc(-c4cnn(C(C)(C)C(N)=O)c4)cc2OCC3)n(C(C)C)n1` (library stock concentration (final ~1000-fold dilution): 10 mM), which “IRF Lucia reporter activity” value [2, 5] is on record?
Answer: 0.346

Question: What about the “IRF Lucia reporter activity” value ([2]; agonist: LPS (TLR4) 0.1 ug/mL) of the same compound?
Answer: 2.29

Question: `COc1ccccc1OCCN.Cl` was tested. Which “IRF Lucia reporter activity” value [1, 4] did it give?
Answer: 0.923

Question: What does the source list for `COc1ccccc1OCCN.Cl` (library stock concentration (final ~1000-fold dilution): 10 mM)?
Answer: IRF Lucia reporter activity [2, 5]: 0.942; IRF Lucia reporter activity ([2]; agonist: LPS (TLR4) 0.1 ug/mL): 1.2

Question: How did the “IRF Lucia reporter activity” value [2, 5] turn out when `N#Cc1cc(-c2n[nH]c(-c3ccncc3)n2)ccn1` (library stock concentration (final ~1000-fold dilution): 10 mM) was run?
Answer: 1.07

Question: And the “IRF Lucia reporter activity” value ([2]; agonist: LPS (TLR4) 0.1 ug/mL)?
Answer: 1.08

Question: Which “IRF Lucia reporter activity” value [1, 4] does the source give for `N#Cc1cc(-c2n[nH]c(-c3ccncc3)n2)ccn1` here?
Answer: 1.06

Question: Which “IRF Lucia reporter activity” value [2, 5] does the source give for `COc1ccc(S(=O)(=O)N(C(C)=O)c2ccccc2/C=C/c2cc[n+]([O-])cc2)cc1` (library stock concentration (final ~1000-fold dilution): 10 mM) here?
Answer: 0.48

Question: What about the “IRF Lucia reporter activity” value ([2]; agonist: LPS (TLR4) 0.1 ug/mL) of the same compound?
Answer: 0.654

Question: For `COc1ccc(S(=O)(=O)N(C(C)=O)c2ccccc2/C=C/c2cc[n+]([O-])cc2)cc1`, which “IRF Lucia reporter activity” value [1, 4] is on record?
Answer: 0.674

Question: Which “IRF Lucia reporter activity” value [2, 5] does the source give for `Cc1c(F)cc(C(=O)NC2CC2)cc1-c1ccc(C(=O)NCC(C)(C)C)cn1` (library stock concentration (final ~1000-fold dilution): 10 mM) here?
Answer: 0.508

Question: What about the “IRF Lucia reporter activity” value ([2]; agonist: LPS (TLR4) 0.1 ug/mL) of the same compound?
Answer: 0.805

Question: With `Cc1c(F)cc(C(=O)NC2CC2)cc1-c1ccc(C(=O)NCC(C)(C)C)cn1` as the compound, how does the “IRF Lucia reporter activity” value [1, 4] read?
Answer: 1.12

Question: `CNC(=O)C(Cc1c[nH]c2ccccc12)NC(=O)C(CC(=O)NO)CC(C)C` (stereo not drawn) was tested. Which “IRF Lucia reporter activity” value [1, 4] did it give?
Answer: 0.969

Question: How did the “IRF Lucia reporter activity” value [2, 5] turn out when `CNC(=O)C(Cc1c[nH]c2ccccc12)NC(=O)C(CC(=O)NO)CC(C)C` (stereo not drawn) (library stock concentration (final ~1000-fold dilution): 10 mM) was run?
Answer: 0.8

Question: And the “IRF Lucia reporter activity” value ([2]; agonist: LPS (TLR4) 0.1 ug/mL)?
Answer: 1.08

Question: What does the source list for `O=C1Nc2nc(-c3c(O)cccc3OCC3CC3)cc([C@@H]3CCCNC3)c2CO1` (library stock concentration (final ~1000-fold dilution): 10 mM)?
Answer: IRF Lucia reporter activity [3, 5]: 0.109; IRF Lucia reporter activity ([3]; agonist: LPS (TLR4) 0.1 ug/mL): 0.104

Question: How did the “IRF Lucia reporter activity” value [1, 4] turn out when `O=C(NC(CO)C(O)c1ccc([N+](=O)[O-])cc1)C(Cl)Cl` (stereo not drawn) was run?
Answer: 0.97

Question: Which results are given for `O=C(NC(CO)C(O)c1ccc([N+](=O)[O-])cc1)C(Cl)Cl` (stereo not drawn) (library stock concentration (final ~1000-fold dilution): 10 mM)?
Answer: IRF Lucia reporter activity [2, 5]: 1.09; IRF Lucia reporter activity ([2]; agonist: LPS (TLR4) 0.1 ug/mL): 0.984

Question: For `NC1C(O)OC(CO)C(O)C1O` (stereo not drawn) (library stock concentration (final ~1000-fold dilution): 10 mM), which “IRF Lucia reporter activity” value [2, 5] is on record?
Answer: 0.143

Question: What about the “IRF Lucia reporter activity” value ([2]; agonist: LPS (TLR4) 0.1 ug/mL) of the same compound?
Answer: 0.267

Question: For `CC(C)c1cc(-c2ccc(F)c3ccccc23)nc(N)n1` (library stock concentration (final ~1000-fold dilution): 10 mM), which “IRF Lucia reporter activity” value [2, 5] is on record?
Answer: 1.11

Question: What about the “IRF Lucia reporter activity” value ([2]; agonist: LPS (TLR4) 0.1 ug/mL) of the same compound?
Answer: 0.742

Question: `CC(C)c1cc(-c2ccc(F)c3ccccc23)nc(N)n1` was tested. Which “IRF Lucia reporter activity” value [1, 4] did it give?
Answer: 0.967

Question: Which results are given for `Cc1cc(C)c(/C=C2\C(=O)Nc3ccccc32)[nH]1` (library stock concentration (final ~1000-fold dilution): 10 mM)?
Answer: IRF Lucia reporter activity [2, 5]: 0.77; IRF Lucia reporter activity ([2]; agonist: LPS (TLR4) 0.1 ug/mL): 0.578

Question: `Cc1cc(C)c(/C=C2\C(=O)Nc3ccccc32)[nH]1` was tested. Which “IRF Lucia reporter activity” value [1, 4] did it give?
Answer: 0.781

Question: `CN1CCC(=C2c3ccccc3CC(=O)c3sccc32)CC1.O=C(O)/C=C/C(=O)O` was tested. Which “IRF Lucia reporter activity” value [1, 4] did it give?
Answer: 0.92

Question: For `CN1CCC(=C2c3ccccc3CC(=O)c3sccc32)CC1.O=C(O)/C=C/C(=O)O` (library stock concentration (final ~1000-fold dilution): 10 mM), which “IRF Lucia reporter activity” value [2, 5] is on record?
Answer: 0.948

Question: What about the “IRF Lucia reporter activity” value ([2]; agonist: LPS (TLR4) 0.1 ug/mL) of the same compound?
Answer: 0.954

Reference: the supplement of paper PMC10037445
